Consider 85 molecules from PubChem BioAssay (NCI).

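Method: 48-hour compound exposure of cells in 96-well plates, five concentrations, linear interpolation of endpoints. GI50 marks 50% less growth. TGI: total growth inhibition.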

This assay has as its system NCI-H322M lung. Briefly: NCI-60 cell line screen, 48 h.

In the case of `CC1(C)CCC[C@]2(C)[C@@H]1CC[C@@]13O[C@@H]1C1=C(CO)C(=O)O[C@]14O[C@@H]4[C@@H]23`, the TGI was 28.4 µM.
On the same count and under the same terms, the value for `COCn1c2ccc(OC(C)=O)cc2c2c(=O)oc(C)nc21` was above 100 µM; that for `O=C1CCCC1C(=O)Nc1ccc2ccccc2c1` (configuration not stated) was above 100 µM; that for `COC1CCC(=C2C(=O)OC(C)(C)OC2=O)N1` (configuration not stated) was above 100 µM.
The same measure, in the same setting: next, `COC(c1ccsc1)C(C#N)(C#N)N=Cc1ccsc1` (configuration not stated): 27.6 µM; `CC(=O)N1N=C(c2c(O)ccc3ccccc23)CC1C(=O)c1ccco1` (configuration not stated): above 100 µM; `COc1ccc2c(c1)OCC1(O)Cc3ccccc3OC21` (configuration not stated): above 100 µM.
Still for that read-out and setting: the value for `CC1(C)C2CCC1(CS(=O)(=O)Nc1ccccc1)C(=O)C2` (configuration not stated) was above 100 µM.
In the case of `CN1CCC(O)C(CNC23CC4CC(CC(C4)C2)C3)C1` (configuration not stated), the TGI was above 100 µM.
The same measure, in the same setting: the value for `CCCOC(=O)C1CCC(=O)N1C(=O)C(Cl)Cl` (configuration not stated) was above 100 µM.
For `COc1ccc([C@H]2c3cc(OC)c(OC)cc3C=C(C=O)C2CO)cc1OC` (some centres not stated), the GI50 is above 100 µM and the TGI was above 100 µM.
On to `CC1(C)O[C@H](C(=O)O)[C@@H](C(=O)O)O1`, for which the TGI was above 100 µM.
The same measure, in the same setting: the value for `CSC1=Nc2ccccc2-c2nc(-c3ccccc3)cc(-c3ccccc3)c2C1` was above 100 µM; that for `O=C(O)Cc1ccc(Oc2nc3ccccc3nc2-c2cccs2)cc1` was above 100 µM.
As for `CC(C)(O)Cn1c(=O)c(Oc2ccc(F)cc2F)cc2cnc(NC3CCOCC3)nc21`, the GI50 was above 25 µM and the TGI was above 25 µM.
`C=CCNC1=C2C[C@@H](C)C[C@@H](OC)C(OC(=O)CCCN(C)C)[C@H](C)/C=C(\C)[C@@H](OC(N)=O)[C@H](OC)/C=C\C=C(/C)C(=O)NC(=CC1=O)C2=O` (some centres not stated): the TGI turned out to be 19.6 µM.
Take `CC/C=C/[C@@H]1C=C[C@@H]2CCC[C@H]2[C@@H]1CC[C@H](O)[C@H](C)N`: the GI50 is 1.63 µM and the TGI was determined as 3.7 µM.
For `O=C(c1ccccc1)c1nnn(Cc2cccc(Cl)c2)c1C(=O)c1ccccc1`, the TGI was above 100 µM.
For the molecule `CCN(CC)CCn1c(=N)n(CC(O)c2ccc(Cl)c(Cl)c2)c2ccccc21` (configuration not stated), the GI50 was 11.3 µM and the TGI is 24.5 µM.
Molecule `[N-]=[N+]=Nc1ccc(S(=O)(=O)Oc2cc(OS(=O)(=O)c3ccc(N=[N+]=[N-])cc3)cc(OS(=O)(=O)c3ccc(N=[N+]=[N-])cc3)c2)cc1` displayed a TGI above 100 µM.
Still for that read-out and setting: next, `O=C(NCC1Nc2ccncc2S(=O)(=O)N1)c1ccc(Br)cc1` (configuration not stated): above 100 µM.
For `CCN(CC)CCCCCCCCNc1c2ccc(Cl)cc2nc2ccc(OC)cc12`, the GI50 is 1.92 µM and the TGI is 5.56 µM.
In turn, `CO/C(=N\N=C\c1ccc(Cl)cc1)c1ccncc1` displayed a TGI above 100 µM.
`CC(C)(C)C#C[P+](c1ccccc1)(c1ccccc1)c1ccccc1` showed a TGI of 2.23 µM.
The same measure, in the same setting: the value for `Cc1cccc2c1C(=O)C1(Cc3ccccc3C1=O)C2` (configuration not stated) was above 100 µM.
With `C#Cc1cccc(NC(=O)Nc2ccccc2NC(=O)CCl)c1`, the GI50 is above 82.5 µM and the TGI was above 82.5 µM.
The molecule `O=C(Nc1ccccc1)c1cc2c(cc1Cl)Sc1nccn1S2(=O)=O` showed a TGI of 43.3 µM.
Turning to `CCOC(=O)c1cnc2ccc(Cl)cc2c1NCCCN(C)C`, the GI50 is 33 µM and the TGI was above 100 µM.
As for `O=C1Cc2c(-c3ccc(Cl)cc3)cc(-c3ccccc3)nc2-c2ccccc2N1`, the TGI worked out at 94.5 µM.
On the same count and under the same terms, the value for `C1=C[C@@H]2c3ccc4cnccc4c3NC[C@@H]2C1` was above 100 µM.
Same read-out and setting: the value for `O=c1c2ccccc2oc2c1ccc1ncccc12` was 70.2 µM.
In the case of `CC[C@]1(O)C[C@@H]2CN(Cc3c([nH]c4ccccc34)[C@@](C(=O)OC)(c3cc4c(cc3OC)N(C)[C@H]3[C@@](O)(C(=O)OC)[C@H](OC(C)=O)[C@]5(CC)[C@@H]6C[C@@H]6CN6CC[C@]43[C@@H]65)C2)C1`, the GI50 was above 1.17 µM and the TGI was above 4.38 µM.
For `COc1cc([C@@H]2c3cc4c(cc3[C@H](OC3OC5COC(c6ccccc6)OC5C(O)C3O)[C@H]3COC(=O)[C@H]23)OCO4)cc(OC)c1OC` (some centres not stated), in that order: 0.522 µM and 20.6 µM.
For the molecule `Cc1cn(C2CC(O)C(CO)C2C)c(=O)[nH]c1=O` (configuration not stated), the TGI was above 100 µM.
The same measure, in the same setting: the value for `N/C(=N\N=C\c1ccc2c(c1)OCO2)NO` was above 100 µM.
As for `CCN1CCN(C(=O)[C@]23CC[C@@H](C)[C@H](C)[C@@H]2C2=CC[C@@H]4[C@@]5(C)C/C(=C/c6cccnc6)C(=O)C(C)(C)[C@@H]5CC[C@@]4(C)[C@]2(C)CC3)CC1`, the GI50 was 2.28 µM and the TGI is 8.27 µM.
Consider `COC(=O)C1Cc2c([nH]c3ccccc23)[C@H](CC(C)C)N1` (some centres not stated), for which the TGI is above 100 µM.
As to `CC/C(=C(\c1ccccc1)c1ccc(OCCN(C)C)cc1)c1ccccc1`, the GI50 is 8.18 µM.
`O=C1NN=C(c2ccc(Cl)cc2)CC1C1C(=O)N(c2ccccc2)N=C1c1ccccc1` (configuration not stated) returned a TGI of 64.2 µM.
On the same count and under the same terms, the value for `Cc1cc(NS(=O)(=O)c2ccc(NC(=O)c3ccc4nc5ccccc5c(Nc5ccc(S(=O)(=O)N=C(N)N)cc5)c4c3)cc2)no1` was 58.4 µM; that for `COC(=O)c1c(OC(C)=O)ccc2c1c1c(OC(C)=O)c3ccccc3c(OC(C)=O)c1n2Cc1cc(OC)cc(OC)c1` was above 100 µM; that for `Cc1cc(O)c(C(C)C)cc1NC(=O)Nc1cccc2ccccc12` was 30 µM.
On to `Cn1ccnc1CCc1ccc(F)cc1F`, for which the TGI was above 100 µM.
Consider `CCOC(=O)c1cc2c(n1Cc1cccc(OC)c1)-c1oncc1CC2`, for which the GI50 was 4.99 µM and the TGI was above 100 µM.
As to `CC1CN=C(Nc2cccc(C(F)(F)F)c2)S1` (configuration not stated), the TGI was above 100 µM.
As to `O=C1CCC/C=C\C[C@H]2C=C(Cl)C(=O)/C2=C/C[C@H](CCCCC(F)(F)F)OC(=O)CCC/C=C\C[C@H]2C=C(Cl)C(=O)/C2=C/C[C@H](CCCCC(F)(F)F)O1`, the GI50 was 0.755 µM and the TGI was 2.11 µM.
As for `COC1OC(OC)C2C(c3c(C)cc(C)cc3C)=NOC12` (configuration not stated), the TGI is above 100 µM.
As to `COc1ccccc1/C=C1\COc2ccc(O)c(O)c2C1=O`, the GI50 is 2.55 µM and the TGI was above 100 µM.
For `COc1ccc(C(=O)CC2(O)C(=O)Nc3c(Cl)ccc(Cl)c32)cc1` (configuration not stated), the GI50 is 6.16 µM and the TGI is above 100 µM.
For the molecule `COc1cc2c(cc1OCCCC(=O)Nc1cc(C(=O)Nc3cc(C(=O)Nc4cc(C(=O)NCCCN(C)C)n(C)c4)n(C)c3)n(C)c1)N=C[C@@H]1CCCN1C2=O`, the TGI was 27.8 µM.
As for `CCCCc1ccc2nc(NC(=O)OC)[nH]c2c1`, the GI50 was 0.154 µM and the TGI was above 89 µM.
As to `COc1c(-c2cc(C)c(Cl)c(=O)[nH]2)c(O)c(OC)c2occc12`, the TGI was above 100 µM.
On the same count and under the same terms, next, `CN(C)C1(C#N)CCC2(CC1)OCCO2`: above 100 µM; `Cc1ccc(S(=O)(=O)NC(=O)NC(Cc2c[nH]c3ccccc23)C(=O)O)cc1` (configuration not stated): above 100 µM.
Take `COc1ccc(NC(=O)c2ccc(NC3=C(Cl)C(=O)N(Cc4ccccc4)C3=O)cc2)cc1`: the GI50 was 17.4 µM and the TGI was 34.5 µM.
Take `C=C1C(=O)OC2C1C(OC(=O)/C(=C/C)COC(C)=O)CC1(CO1)C1C(OC(=O)/C(=C/C)CO)C=C(C)C21` (configuration not stated): the TGI came to 18.3 µM.
Still for that read-out and setting: next, `CC(=O)OC1COC(N2C(=O)C(=O)c3c(C)cc(Cl)nc32)C(OC(C)=O)C1OC(C)=O` (configuration not stated): above 100 µM; `Oc1ccc2c(c1)-c1c(c3cc(O)ccc3n1CCN1CCOCC1)CC2`: above 100 µM.
Same read-out and setting: the value for `O=C(CC1Sc2ccccc2NC1=O)Nc1cccc(Cl)c1` (configuration not stated) was above 100 µM; that for `CCSSCS(C)(=O)=O` was above 100 µM; that for `O=c1c(Cl)nsnc1Cl` was 33.4 µM.
On the same count and under the same terms, next, `CCCCN(CCCC)C(=Nc1ccccc1)N(CCCC)CCCC`: 48.1 µM.
Molecule `CCS[C@H]1NC(=O)C1[C@H](C)O[Si](C)(C)C(C)(C)C` (some centres not stated) came in with a TGI above 100 µM.
As to `c1ccc2c(c1)c1c(n2CCOCCN2CCCCC2)CCCC1`, the TGI came out at 28.8 µM.
Still for that read-out and setting: the value for `COc1cc(C2c3cc4c(cc3C(O)C3CCC(=O)N23)OCO4)cc(OC)c1OC` (configuration not stated) was above 100 µM.
`COc1cc(Oc2nc3ccccc3nc2C(=O)O)cc(OC)c1OC` had a TGI above 100 µM.
On the same count and under the same terms, next, `[O-][n+]1onc2c3nn(-c4ccccc4)nc3ccc21`: 41 µM.
With `CCNC(=S)N/N=C/c1cc(OC)ccc1O`, the TGI is above 100 µM.
The molecule `COC(=O)C1=Cc2cc3c(cc2[C@H](c2ccc4c(c2)OCO4)C1C(=O)OC)OCO3` (some centres not stated) returned a TGI above 100 µM.
Still for that read-out and setting: the value for `CN(NC(=O)/C(=C/c1ccc(O)cc1)NC(=O)c1ccccc1)c1ccnc2cc(Cl)ccc12` was 40.1 µM.
On to `O=P(O)(O)OC1C(OP(=O)(O)O)C(OP(=O)(O)O)C(OP(=O)(O)O)C(OP(=O)(O)O)C1OP(=O)(O)O` (configuration not stated), for which the GI50 is above 2000 µM and the TGI was above 2000 µM.
As for `CCNc1nc(N)c(C(=O)c2ccc(Cl)cc2)s1`, the TGI was above 100 µM.
On the same count and under the same terms, the value for `COc1ccc(C(=O)O/N=C2\CCCC\C2=C/c2ccccc2)cc1` was above 100 µM.
Turning to `O=C(CCCCCCc1nc2ccc(Br)cc2[nH]1)NO`, the GI50 is 0.397 µM and the TGI is 16.8 µM.
For the molecule `COc1ccc(/C=N\N2CC(=O)N3C4C=CC(CC4)N3C2=O)cc1` (configuration not stated), the TGI is above 100 µM.
Still for that read-out and setting: the value for `COCn1c(C)c(C)c2c(=O)oc(=O)[nH]c21` was above 100 µM.
For the molecule `N#Cc1c(N)nn(C(=O)c2ccc(NC(=O)c3ccccn3)cc2)c1-c1ccc(Cl)cc1`, the GI50 is 3.94 µM and the TGI is above 100 µM.
`COC(=O)C1=C(O)C(O)=C(C(=O)OC)CC1` registered a TGI above 100 µM.
As for `COc1ccc(/C=C2/SC(=Nc3c(C)nn(-c4ccccc4)c3N)NC2=O)cc1`, the GI50 is 3.82 µM and the TGI was determined as 25.7 µM.
Regarding `COc1c2occc2c(OC)c2c(=O)c(S(=O)(=O)NC(=O)Nc3ccc(Cl)cc3)coc12`, the TGI is above 10 µM.
`COC(=O)C1=CC(=O)C(C(=O)Nc2ccc(OC)cc2)C(c2ccccc2)O1` (configuration not stated): the TGI was above 100 µM.
The same measure, in the same setting: the value for `C[C@]12CC[C@H]3[C@@H](CCC4=CC(=O)C=C[C@@]43O)[C@@H]1CCC2=O` was above 100 µM; that for `CCOP1(=O)OCC2OC(n3cnc4c(N)ncnc43)C(O)C2O1` (configuration not stated) was above 100 µM.
In the case of `COc1cc[c]([Hg][Cl])cc1`, the GI50 is 15.6 µM and the TGI worked out at 30.3 µM.
For `CC(C)Oc1cc(OCC(=O)O)cc(C(=O)N(CCC(N)=O)C(=O)Nc2ccc(C(=O)O)cc2OC(C)C)c1`, in that order: above 100 µM and above 100 µM.
